{
  "sequences": {"note": "Chains of the proteins cited; added tags and fusions are not shown.", "UniProt O49686": "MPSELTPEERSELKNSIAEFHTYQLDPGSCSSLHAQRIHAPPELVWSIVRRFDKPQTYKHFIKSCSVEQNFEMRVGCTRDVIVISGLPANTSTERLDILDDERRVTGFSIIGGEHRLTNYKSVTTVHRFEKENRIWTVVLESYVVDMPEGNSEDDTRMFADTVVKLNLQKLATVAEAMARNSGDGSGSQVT"},
  "source": "paper PMC6006248",
  "about": "“CARK1 mediates ABA signaling by phosphorylation of ABA receptors” (Cell Discovery, 2018)",
  "molecules": {"B1": {"name": "CARK1C (amino acid residues 290-364 of CARK1), two-hybrid prey (domain or fragment, UniProt Q9LUT0 290-364)", "chain": "WATPKLSEDKVKQCVDARLNGEYPPKAVAKLAAVAALCVQYEADFRPNMSIVVKALQPLLNPPRSAPQTPHRNPY"}, "B2": {"name": "Flag-tagged RCAR3 (receptor, UniProt Q9FGM1 1-188)", "chain": "MEANGIENLTNPNQEREFIRRHHKHELVDNQCSSTLVKHINAPVHIVWSLVRRFDQPQKYKPFISRCVVKGNMEIGTVREVDVKSGLPATRSTERLELLDDNEHILSIRIVGGDHRLKNYSSIISLHPETIEGRIGTLVIESFVVDVPEGNTKDETCYFVEALIKCNLKSLADISERLAVQDTTESRV"}, "B3": {"name": "CARK1-nYFP (enzyme, UniProt Q9LUT0 1-364)", "chain": "MGCFGCCGGGEDFRRVSETGPKPVHNTGGYNGGHHQRADPPKNLPVIQMQPISVAAIPADELRDITDNYGSKSLIGEGSYGRVFYGILKSGKAAAIKKLDSSKQPDQEFLAQVSMVSRLRQENVVALLGYCVDGPLRVLAYEYAPNGSLHDILHGRKGVKGAQPGPVLSWHQRVKIAVGAARGLEYLHEKANPHVIHRDIKSSNVLLFDDDVAKIADFDLSNQAPDMAARLHSTRVLGTFGYHAPEYAMTGTLSTKSDVYSFGVVLLELLTGRKPVDHTLPRGQQSVVTWATPKLSEDKVKQCVDARLNGEYPPKAVAKLAAVAALCVQYEADFRPNMSIVVKALQPLLNPPRSAPQTPHRNPY"}, "B4": {"name": "His-tagged CARK1-KD^N204A (domain or fragment, UniProt Q9LUT0 50-353)", "chain": "QPISVAAIPADELRDITDNYGSKSLIGEGSYGRVFYGILKSGKAAAIKKLDSSKQPDQEFLAQVSMVSRLRQENVVALLGYCVDGPLRVLAYEYAPNGSLHDILHGRKGVKGAQPGPVLSWHQRVKIAVGAARGLEYLHEKANPHVIHRDIKSSAVLLFDDDVAKIADFDLSNQAPDMAARLHSTRVLGTFGYHAPEYAMTGTLSTKSDVYSFGVVLLELLTGRKPVDHTLPRGQQSVVTWATPKLSEDKVKQCVDARLNGEYPPKAVAKLAAVAALCVQYEADFRPNMSIVVKALQPLLNPPR"}},
  "key": {"[1]": {"molecular_target": "T1, HA-tagged CARK1^N204A (Arabidopsis) (UniProt Q9LUT0)", "T1 sequence": "B3 chain with N204A", "assay": "co-IP; HA-tagged CARK1/CARK1^N204A and Flag-tagged RCAR3/RCAR11 co-transfected into wild-type Arabidopsis protoplasts; Anti-HA Magnetic Beads; 50 mM Tris pH 7.5, 150 mM NaCl, 5 mM EDTA, 1% Triton X-100; blot with anti-Flag and anti-HA"}, "[2]": {"molecular_target": "T2, HA-tagged CARK1 (full-length) (Arabidopsis) (UniProt Q9LUT0)", "T2 sequence": "B3 chain", "assay": "co-IP; HA-tagged CARK1/CARK1^N204A and Flag-tagged RCAR3/RCAR11 co-transfected into wild-type Arabidopsis protoplasts; Anti-HA Magnetic Beads; 50 mM Tris pH 7.5, 150 mM NaCl, 5 mM EDTA, 1% Triton X-100; blot with anti-Flag and anti-HA"}, "[3]": {"molecular_target": "T3, RCAR14 (PYL2), two-hybrid bait (Arabidopsis) (UniProt O80992)", "T3 sequence": "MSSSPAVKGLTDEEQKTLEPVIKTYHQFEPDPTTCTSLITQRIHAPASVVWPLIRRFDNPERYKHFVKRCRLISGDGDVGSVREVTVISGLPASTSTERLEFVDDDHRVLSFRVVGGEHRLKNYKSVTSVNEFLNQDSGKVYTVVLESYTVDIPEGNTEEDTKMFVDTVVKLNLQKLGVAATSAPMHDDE", "assay": "two-hybrid; MatchMaker GAL4 Two-Hybrid System 3; RCARs as bait in pGBKT7, CARK1C as prey in pGADT7 (library clones in pGADT7-Rec); 10 μM ABA added to the indicated medium to test its effect"}, "[4]": {"molecular_target": "T4, RCAR3 (PYL8), two-hybrid bait (Arabidopsis) (UniProt Q9FGM1)", "T4 sequence": "B2 chain", "assay": "two-hybrid; MatchMaker GAL4 Two-Hybrid System 3; RCARs as bait in pGBKT7, CARK1C as prey in pGADT7 (library clones in pGADT7-Rec); 10 μM ABA added to the indicated medium to test its effect"}, "[5]": {"molecular_target": "T5, RCAR7 (PYL13), two-hybrid bait (Arabidopsis) (UniProt Q9SN51)", "T5 sequence": "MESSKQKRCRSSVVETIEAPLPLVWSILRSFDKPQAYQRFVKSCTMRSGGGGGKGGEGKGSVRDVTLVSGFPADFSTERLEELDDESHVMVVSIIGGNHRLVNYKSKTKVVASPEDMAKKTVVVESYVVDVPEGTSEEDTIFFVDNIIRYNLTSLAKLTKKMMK", "assay": "two-hybrid; MatchMaker GAL4 Two-Hybrid System 3; RCARs as bait in pGBKT7, CARK1C as prey in pGADT7 (library clones in pGADT7-Rec); 10 μM ABA added to the indicated medium to test its effect"}, "[6]": {"molecular_target": "RCAR11 (PYR1), two-hybrid bait (Arabidopsis) (UniProt O49686)", "assay": "two-hybrid; MatchMaker GAL4 Two-Hybrid System 3; RCARs as bait in pGBKT7, CARK1C as prey in pGADT7 (library clones in pGADT7-Rec); 10 μM ABA added to the indicated medium to test its effect"}, "cYFP-RCAR3 (Arabidopsis)": {"molecular_target": "T6, cYFP-RCAR3 (Arabidopsis) (UniProt Q9FGM1)", "T6 sequence": "B2 chain", "assay": "split reporter; BiFC with nYFP and cYFP fusions co-expressed in leaves of N. benthamiana; confocal microscopy"}, "[7]": {"molecular_target": "cYFP-RCAR11 (Arabidopsis) (UniProt O49686)", "assay": "split reporter; BiFC with nYFP and cYFP fusions co-expressed in leaves of N. benthamiana; confocal microscopy"}, "[8]": {"molecular_target": "GST-tagged RCAR11 (Arabidopsis) (UniProt O49686)", "assay": "condition: up to 200 μg of His-tagged CARK1-KD^N204A with 100 μg of GST-tagged RCAR11; pull-down; GST pull-down; His-tagged CARK1-KD or CARK1-KD^N204A (50, 100 and 200 μg) incubated with 100 μg of GST-tagged RCAR3 or RCAR11; SDS-PAGE and immunoblot; both purified"}, "[9]": {"molecular_target": "T7, GST-tagged RCAR3 (Arabidopsis) (UniProt Q9FGM1)", "T7 sequence": "B2 chain", "assay": "condition: up to 200 μg of His-tagged CARK1-KD^N204A with 100 μg of GST-tagged RCAR3; pull-down; GST pull-down; His-tagged CARK1-KD or CARK1-KD^N204A (50, 100 and 200 μg) incubated with 100 μg of GST-tagged RCAR3 or RCAR11; SDS-PAGE and immunoblot; both purified"}},
  "note": "Positions count from the first letter of the chain named. In names and notes the source's numbering stands. No constants are given. Whether binding was seen depends on the method and setting. For part of these data: In cells and extracts the contact can be indirect. Some results given as binding are weak or reduced against the parent protein; the word gives no strength. For part of these data: Where a sequence is shown, tags or fusion partners need not be part of it.",
  "data": [
    {"molecule": "Flag-tagged RCAR11 (from UniProt O49686 1-191) (receptor)", "values": [
      {"measurement": "binding", "setting": "[1]", "value": "no binding"},
      {"measurement": "binding", "setting": "[2]", "value": "binds"}
    ]},
    {"molecule": "B1", "values": [
      {"measurement": "binding", "setting": "[3]", "value": "no binding"},
      {"measurement": "binding", "setting": "[4]", "value": "binds"},
      {"measurement": "binding", "setting": "[5]", "value": "no binding"},
      {"measurement": "binding", "setting": "[6]", "value": "binds"}
    ]},
    {"molecule": "B2", "values": [
      {"measurement": "binding", "setting": "[1]", "value": "no binding"},
      {"measurement": "binding", "setting": "[2]", "value": "binds"}
    ]},
    {"molecule": "B3", "values": [
      {"measurement": "binding", "setting": "cYFP-RCAR3 (Arabidopsis)", "value": "binds"},
      {"measurement": "binding", "setting": "[7]", "value": "binds"}
    ]},
    {"molecule": "B4", "values": [
      {"measurement": "binding", "setting": "[8]", "value": "no binding"},
      {"measurement": "binding", "setting": "[9]", "value": "no binding"}
    ]}
  ]
}
